Data from a collection of fitness landscapes (doi:10.1016/j.celrep.2020.107928).
The full ranking holds about 81,000 sequences; the median of “one-hybrid fitness for binding NBS DNA” is about -0.1, and the highest 2% start at about 0.36. This is one part of the list.

B1: Caulobacter ParB omega fusion; a variant is named by its letters at X, in order, B8GW30 (parent)
chain: MESVVVGEPGMSEGRRGLGRGLSALLGEVDAAPAQAPGEQLGGSREAPIEILQRNPDQPRRTFREEDLEDLSNSIREKGVLQPILVRPSPDTAGEYQIVAGERAWRAAQRAGLKTVPIMVRELDDLAVLEIGIIENVQRADLNVLEEALSYKVLMEKFERTQENIAQTIGKSXSHVANXMRLLXLPDEVQSYLVSGELTAXHARAIAAAADPVALAKQIIEGGLSVRETEALARKAPNLSAGKSKGGRPPRVKDTDTQALESDLSSVLGLDVSIDHRGSTGTLTITYATLEQLDDLCNRLTRGI

Variants of: B1
Assay: one-hybrid fitness for binding NBS DNA (the Noc-binding site; scaled: cognate 1, non-cognate 0); higher = stronger binding
Conditions: with NBS DNA site
Method in brief: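 Selection: bacterial one-hybrid in E. coli USO, HIS3 reporter with the site 19 bp from the promoter, 48 hours at 37°C on M9-minus-histidine plus 0.1 mM IPTG and 5 mM 3-AT. Libraries were Caulobacter ParB with four randomised specificity codons, sequenced on Illumina before and after selection. Fitness is the rescaled log change in variant-to-wild-type read ratio, anchored to the cognate and non-cognate sites.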

one-hybrid fitness for binding NBS DNA, 0.241:
QIRC

one-hybrid fitness for binding NBS DNA, 0.814:
RRKT

one-hybrid fitness for binding NBS DNA, 0.33:
RTKV

one-hybrid fitness for binding NBS DNA, 0.433:
RHAS

one-hybrid fitness for binding NBS DNA, 0.261:
RVVS

one-hybrid fitness for binding NBS DNA, 0.206:
RHFR

one-hybrid fitness for binding NBS DNA, 0.357:
RYMR

one-hybrid fitness for binding NBS DNA, 0.372:
RWKR

one-hybrid fitness for binding NBS DNA, 0.274:
LTKR

one-hybrid fitness for binding NBS DNA, 0.27:
RSWR

one-hybrid fitness for binding NBS DNA, 0.232:
QLPR

one-hybrid fitness for binding NBS DNA, 0.239:
QTQC

one-hybrid fitness for binding NBS DNA, 0.577:
RCHS

one-hybrid fitness for binding NBS DNA, 0.294:
RRHM

one-hybrid fitness for binding NBS DNA, 0.406:
QQYS

one-hybrid fitness for binding NBS DNA, 0.484:
RVHR

one-hybrid fitness for binding NBS DNA, 0.207:
RRHF

one-hybrid fitness for binding NBS DNA, 0.437:
RKFT

one-hybrid fitness for binding NBS DNA, 0.303:
RTKM

one-hybrid fitness for binding NBS DNA, 0.39:
RHQT

one-hybrid fitness for binding NBS DNA, ≤ 0.2:
RLKQ
DTNR
AENT
TGWI
GFLD
EPMG
SAPH
EAMT
KSVH
MAYL
LTKC
YLDT
QPAR
TLMV
PNHC
RHMF
RAVL
NWLS
SEIG
NTDL
DDPG
IDIG
DELT
LYNA
RMDR
NSGI
VPET
PSSK
CWTT
EQIG
HVDD
TGSA
KTCM
MVRY
HYFI
YGHS
AQKG
RLFA
NVCA
CLQC
THYF
AIYC
NYEL
IRVD
NSTP
SSNF
RQSQ
IGIS
VLKS
GSLW
CRCL
NTLK
AFHE
NPTH
ACNV
KQTK
LNRG
IPIR
MRAG
YGYE
LMQS
DVVS
AAAL
QTQD
DCTV
QAEV
TWVT
MRNC
YPGC
MERL
GKCY
PLYL
SAGA
LSPD
IGQG
FYVG
KVGR
LLIL
HWAG
TYEV
PCGR
SWTF
SWLY
DELY
RCYQ
YIAR
SPPT
NCHG
VQSF
LVPK
EYCL
RSPD
PPCL
PTAD
NNPC
VATS
HSNC
GMMF
TTAD
RLRD
QKVF
YYSN
VARQ
SDLG
NGHF
VSFP
HHRF
QYNQ
VENW
GVSW
GRRH
RGKD
VKTG
PGDF
LDLN
DRFL
LPDS
AILF
HMTH
RFCI
VHPM
SPHF
QGAV
YNHG
GWGS
YTDL
SNPR
QCEY
ALFK
KDAE
MCPV
TVTT
QHFN
GYSP
VSKE
VITC
RADT
YSAD
NCSS
VGPL
RSNE
TTQG
VPKS
AATV
PMVA
HNSQ
CNSV
PNSL
LLST
TLNR
AAWC
PTGA
DNKT
QQEY
CRNV
NAWG
EYWD
GQIL
FKNS
CQSN
SCIT
MTMT
DDSS
CTGS
TTTT
DKIR
GLYT
QLAK
GRMG
GGDY
SGYC
LRGN
LINC
HGVD
RCVH
TCTG
HKEK
NMNI
INLW
KIVS
YTAV
FVHS
RALV
PRNT
NQRA
APPH
AVFW
LQAG
DGMS
WWMC
MNYN
TDEC
YLIN
PICR
IHQG
YLPT
NPNG
PAMF
RFMA
HIAG
QFTH
VHPA
QWPG
GSSG
YFAT
GIKT
CVTH
KTAA
MTNM
SLLI
EHRS
TQSI
TKYT
YSAF
VTPA
APLM
TCLG
MAGV
KNYS
QDFW
WWTG
KRTW
ILMY
CRIT
TAHR
LHSP
DWWS
ALAL
AMPL
RARV
ENCG
GQAR
RVKP
DTSY
YPMG
RLWY
HPQD
VHTM
DAHI
AGPK
TTMD
QKCH
KPSL
TEHF
PKIC
DAVW
GATP
RDAG
KHWK
IVPQ
MCYC
ANMS
ACFT
AKLT
ACWD
LTAI
LVWG
REQC
HQGT
PKRA
RHFE
TQEG
KKDV
CIAL
VHHG
EMKE
VKWT
TYVP
WHAC
GSVV
FYDR
IIRS
APPE
RCEG
ETAT
KLLH
KRMN
AQFS
IRIV
AAAK
QNKI
RCEM
WSAW
NDVS
LETT
SSPR
